The whole screen tested about 230,000 compounds, of which about 3,600 (1.6%) were called active. The inconclusive results got no clear call from the source; some entries with a clear call stand among them for comparison. Calls follow the shape of the dose curve; as a rule, active = well fitted inhibition curve with a large enough effect (not every such curve was filed as active); inconclusive = small, poorly fitted or top-dose-only effect, or another doubt; inactive = no such curve, though single readings can be large or run the other way. Potencies beside an inconclusive call are fits to weak or partial responses and may not hold up.
These compounds were tested against Lysine-specific demethylase 4E (Homo sapiens) (UniProt B2RXH2) (assay: qHTS Assay for Inhibitors of Human Jumonji Domain Containing 2E (JMJD2E)). Details: JMJD2E catalytic domain, FDH-coupled NADH fluorescence (FDH is formaldehyde dehydrogenase); series mostly up to 57.1 µM; activity change, negative = inhibition: at the top concentration.
Also: nearly all actives have a fitted effect of over 50% in size.
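For activity change, negative = inhibition in this document: 0% = wells with enzyme and -100% = buffer wells without enzyme.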
Potency is read from the fitted curve at half-maximal effect; tags tell the direction and shape of the fitted curve.

Sequence of UniProt B2RXH2 (B2RXH2 whole entry, looked up, the tested form may be a part): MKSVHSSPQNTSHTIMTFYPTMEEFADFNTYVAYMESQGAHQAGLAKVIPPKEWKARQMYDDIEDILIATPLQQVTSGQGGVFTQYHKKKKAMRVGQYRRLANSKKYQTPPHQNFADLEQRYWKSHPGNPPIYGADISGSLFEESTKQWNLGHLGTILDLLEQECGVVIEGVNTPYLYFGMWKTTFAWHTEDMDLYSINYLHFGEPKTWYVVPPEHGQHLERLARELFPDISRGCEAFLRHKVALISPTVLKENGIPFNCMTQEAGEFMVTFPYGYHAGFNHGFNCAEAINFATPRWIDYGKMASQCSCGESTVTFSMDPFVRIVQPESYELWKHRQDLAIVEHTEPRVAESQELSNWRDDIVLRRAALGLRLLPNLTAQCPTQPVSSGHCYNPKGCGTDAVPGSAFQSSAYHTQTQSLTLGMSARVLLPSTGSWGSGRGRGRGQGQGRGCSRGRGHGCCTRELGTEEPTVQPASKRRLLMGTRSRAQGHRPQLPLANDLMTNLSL

SMILES	Potency	activity change, negative = inhibition
CC(=O)Nc1ccc(S(=O)(=O)Nc2nc3ccccc3nc2Sc2nncn2C)cc1	inconclusive: 35.5 µM [inhibitor, partial curve]	–
Cc1ccc(-n2c(-c3ccccc3)n[nH]c2=S)cc1	inconclusive: 28.2 µM [inhibitor, single point]	–
Nc1ccc(-c2nc3ccc(N)cc3s2)cc1	inconclusive: 3.98 µM [inhibitor, full curve]	–
COc1cc(C(CCN2CCOCC2)c2c(OC)cc(OC)c3c(C)cc(=O)oc23)cc(OC)c1OC (centres undefined)	inconclusive: 25.1 µM [inhibitor, partial curve]	–
O=C(COC(=O)c1cnccn1)c1ccc2ccccc2c1	inconclusive: 28.2 µM [inhibitor, partial curve]	–
O=C(N1CCOCC1)C(F)(F)C(=O)N1CCOCC1	–	inactive: 6.37%
COc1cccc(CN2CCNC(=O)C2CC(=O)NCCCn2ccnc2)c1 (centres undefined)	inconclusive: 31.6 µM [inhibitor, single point]	–
CC1(C)C(=O)Nc2ccccc2N1C(=O)COc1ncnc2c(Cl)cc(Cl)cc12	inconclusive: 39.8 µM [inhibitor, single point]	–
C=C(C)CSc1nc2sc3c(c2c(=O)n1C1CCCCC1)CCN(C)C3	inconclusive: 28.2 µM [inhibitor, partial curve]	–
CCCc1cc(-n2ccnc2)n2c(nc3ccccc32)c1C#N	inconclusive: 35.5 µM [inhibitor, single point]	–
CN1CCN(C(=S)c2ccc(Cl)cc2)CC1	–	inactive: 11%
COc1cccc(C2=NN(C(=O)c3cccs3)C(O)(C(F)(F)F)C2)c1 (centres undefined)	–	inactive: -8.48%
O=C(NC(=S)NCc1nc2ccccc2[nH]1)c1ccc(F)cc1	inconclusive: 31.6 µM [inhibitor, single point]	–
CCOC(=O)CCCNC(=O)N1CCc2nc(COc3ccccc3)c3c(c2C1)CO[C@@H](C)C3	–	inactive: -3.36% [at 11.4 µM]
COC(=O)C1=C(C)NC2=C(C(=O)CCC2)C1c1ccc(-c2ccsc2C(=O)OC)o1 (centres undefined)	inconclusive: 39.8 µM [inhibitor, single point]	–
Cc1ccc2c(c1)COc1c3ccc(C(=O)N[C@@H](C)CO)cc3nn1-2	inconclusive: 28.2 µM [inhibitor, partial curve]	–
CCCCN(C)C(=O)C1CCC(=O)N(c2cc(OC)c(OC)c(OC)c2)C1c1ccc(OC)cc1 (centres undefined)	–	inactive: -3.57%
Cc1cccc(C(=O)NCCNc2nc3cc(C)c(C)cc3cc2C)c1	inconclusive: 25.1 µM [inhibitor, partial curve]	–
CCOc1cc(C#N)c(NC(=O)c2ccco2)cc1OCC	inconclusive: 35.5 µM [inhibitor, single point]	–
CCOc1ccc2[nH]c3c(=O)n(CCC4=CCCCC4)cnc3c2c1	inconclusive: 28.2 µM [inhibitor, partial curve]	–
N#Cc1cc2c([nH]c1=O)CCCC2	inconclusive: 28.2 µM [inhibitor, partial curve]	–
CC1(C)Cc2c(sc3c2C(=O)N(c2ccccc2)C2=NCCN23)CS1	inconclusive: 25.1 µM [inhibitor, partial curve]	–
O=S(=O)(c1ccc(Cl)nc1)N1CCN(c2ncccn2)CC1	–	inactive: -1.17%
NC(Cc1cccc2nsnc12)C(=O)O (centres undefined)	inconclusive: 35.5 µM [inhibitor, single point]	–
COc1cc2cc(CN(Cc3cccs3)C(=S)Nc3ccccc3)c(=O)[nH]c2cc1OC	inconclusive: 35.5 µM [inhibitor, partial curve]	–

SMILES	Potency	activity change, negative = inhibition
CCNC(=S)N/N=C(\C)c1ccc(N2CCOCC2)cc1	inconclusive: 31.6 µM [inhibitor, partial curve]	–
O=C(c1ccccc1)c1ccc(OCCCN2CCCCC2)cc1	inconclusive: 35.5 µM [inhibitor, single point]	–
CC(Oc1ccc(O)cc1)(P(=O)(O)O)P(=O)(O)O	active: 1.58 µM	–
O=C(COC(=O)c1ccc(Br)cc1)NCCN1C(=O)CSC1=O	–	inactive: 7.59%
CCCn1c(CN2CCCCC2C)nc2c1c(=O)n(C)c(=O)n2C (centres undefined)	–	inactive: -1.12%
COc1ccc(C2NC(c3ccc(OC)c(OC)c3OC)C(C)C(=O)C2C)c(OC)c1OC (centres undefined)	inconclusive: 28.2 µM [inhibitor, single point]	–
O=C(COc1ccc(Cl)cc1Cl)N/N=C/c1ccc(OC2OC(CO)C(O)C(O)C2O)cc1 (centres undefined)	–	inactive: 7.74%
O=C(CNc1cc(S(=O)(=O)N2CCOCC2)ccc1N1CCCC1)N1CCc2ccccc21	inconclusive: 39.8 µM [inhibitor, single point]	–
O=C(COC(=O)COc1ccccc1)Nc1ccc(S(=O)(=O)N2CCOCC2)cc1	–	inactive: -2.51%
Cc1ccc2occ(C3NC(C(=O)O)CS3)c(=O)c2c1 (centres undefined)	inconclusive: 35.5 µM [inhibitor, partial curve]	–
Cc1nc(N2CCOCC2)c2cc(-c3ccccc3)sc2n1	inconclusive: 25.1 µM [inhibitor, partial curve]	–
CCNC(=S)NNC(=O)c1cc(C2CC2)nc2ccccc12	–	inactive: 2.49%
COc1cccc(NC(=S)N(CCCN2CCCC2)Cc2ccco2)c1	–	inactive: 4.43%
O=S(=O)(Nc1cccc(-c2cn3cccnc3n2)c1)c1ccc(F)cc1	inconclusive: 28.2 µM [inhibitor, partial curve]	–
Clc1ccc2oc(-c3cccnc3NCc3ccccc3)nc2c1	inconclusive: 25.1 µM [inhibitor, partial curve]	–
CCOC(=O)c1c(-c2cccc3ccccc23)csc1NC(=O)C1C2CCC(O2)C1C(=O)O (centres undefined)	inconclusive: 35.5 µM [inhibitor, single point]	–
Cc1ccn2cc(C(=O)NC3CCN(Cc4ccccc4)CC3)nc2c1	inconclusive: 35.5 µM [inhibitor, single point]	–
COc1cccc(C2CC(c3ccc(Br)cc3)=NN2C(=O)c2ccncc2)c1OC (centres undefined)	inconclusive: 39.8 µM [inhibitor, single point]	–
COc1cc(NC(=O)c2ccc(Cl)cc2Cl)ccc1-c1cc2ccccc2oc1=O	inconclusive: 25.1 µM [inhibitor, partial curve]	–
NC1=NS(=O)(=O)NC1c1ccc(F)cc1 (centres undefined)	–	inactive: -0.291%
N#CC1=C(S)N(c2ccc(F)cc2)C2(CCCCC2)NC1=O	–	inactive: -5.23%
COc1ccc(/C=N/N=C2/NC(=O)C(CC(=O)NC(C)C)S2)cc1 (centres undefined)	–	inactive: -2.49%
COc1ccc(S(=O)(=O)Nc2ccccc2C(=O)NC(C)C)cc1OC	inconclusive: 35.5 µM [inhibitor, single point]	–
O=C(Cn1c(-c2ccccc2)c[n+]2ccsc12)c1ccc(Br)cc1	–	inactive: 8.26%
Cc1c(C)n(CC(O)CN2CCCCC2)c2ccccc12 (centres undefined)	inconclusive: 31.6 µM [inhibitor, single point]	–

SMILES	Potency	activity change, negative = inhibition
COc1ccc(CN2CCC(C(=O)N(C)CCc3ccc(OC)c(OC)c3)CC2)c(OC)c1	–	inactive: -25.8%
O=C(Nc1ccccc1-c1ccccc1)c1cccc([N+](=O)[O-])c1	–	inactive: -8.35%
COc1ccc2c(COC(=O)CNC(=O)C34CC5CC(CC(C5)C3)C4)cc(=O)oc2c1	inconclusive: 0.501 µM [inhibitor, partial curve, poor fit]	–
COc1ccc(N2CCN(c3ccc(NC(=O)C4CCCCC4)cc3C#N)CC2)cc1	inconclusive: 15.8 µM [inhibitor, single point]	–
CCC(C)NC(=O)c1cccc(OCc2c(C)noc2C)c1 (centres undefined)	–	inactive: -15.6%
O=C(N/N=C/c1cccc(Oc2ccccc2)c1)c1ccccc1Br	–	inactive: -3.1%
Cc1cc(C)c([N+](=O)[O-])cc1-c1ccc(/C=N/c2c(-c3ccco3)nc3ccccn23)o1	inconclusive: 12.6 µM [inhibitor, partial curve]	–
COC(=O)c1cc2n3ccccc3c(C)c(-c3ccccc3)c-2c1C(=O)OC	inconclusive: 22.4 µM [inhibitor, partial curve]	–
C/C(=N\NC(=O)c1ccccc1)c1nc2ccccc2n1C	–	inactive: -24.7%
CCOC(=O)N1CCC(Nc2c(Nc3cccc(CC)c3)c(=O)c2=O)CC1	inconclusive: 28.2 µM [inhibitor, single point]	–
CC#CCOC(=O)c1c(C)nc2sc3c(c2c1N)CC[C@@H](O)C3	inconclusive: 35.5 µM [inhibitor, partial curve]	–
CN(C)c1ccc(NC(=O)/C=C/c2ccccc2Cl)cc1	–	inactive: -4.14%
CC(=O)c1sc(N/N=C/c2cccc(O)c2)nc1C	inconclusive: 20 µM [inhibitor, partial curve]	–
Fc1ccc(C2NCCn3cccc32)cc1 (centres undefined)	active: 20 µM	–
CN1CCN(CC(=O)NC23CC4CC(CC(C4)C2)C3)CC1	inconclusive: 35.5 µM [inhibitor, single point]	–
O=C(Cc1n[nH]c(=O)[nH]c1=O)N/N=C/c1ccccc1O	active: 14.1 µM	–
Cc1[nH]c2ccccc2c1SCC(=O)N1CCCCCC1	inconclusive: 8.91 µM [inhibitor, single point]	–
Cc1ccc(-c2c[n+](CC(=O)Nc3nc(-c4ccc(F)cc4)cs3)c3n2CCC3)cc1	inconclusive: 15.8 µM [inhibitor, partial curve]	–
COc1cc(C(=O)NC(=S)N(C)Cc2ccccc2)cc(OC)c1OC	–	inactive: -2.32%
O=C(c1cc(F)ccc1F)C1CCCN(C(=O)c2ccc(F)cc2Cl)C1 (centres undefined)	–	inactive: -10.2%
COc1ccc(-c2onc3ccc(Br)cc23)cc1	–	inactive: -7.08%
CCOC(=O)c1sc(Nc2nc(OC)cc(OC)n2)nc1C	inconclusive: 35.5 µM [inhibitor, single point]	–
CN(C)Cc1cc(C(C)(C)C)cc(C(C)(C)C)c1O	–	inactive: 1.9%
CCOc1ccc(C(=O)/C=C/c2ccc(OC)c(OC)c2)cc1	inconclusive: 39.8 µM [inhibitor, single point]	–

From PubChem BioAssay AID2147 (National Center for Advancing Translational Sciences (NCATS), 2009)
